These are yes or no findings as the source states them, for the method shown. For some of these results: Binding seen in cells or lysates may run through a third protein. Sequences can lack the tags named with a protein. Some binding calls cover weakened binding; strength is not graded here.

In experiment [1] the target is T1, RS41 fused to EYFP-N or EYFP-C (BiFC) (Arabidopsis) (UniProt P92966).
T1 sequence: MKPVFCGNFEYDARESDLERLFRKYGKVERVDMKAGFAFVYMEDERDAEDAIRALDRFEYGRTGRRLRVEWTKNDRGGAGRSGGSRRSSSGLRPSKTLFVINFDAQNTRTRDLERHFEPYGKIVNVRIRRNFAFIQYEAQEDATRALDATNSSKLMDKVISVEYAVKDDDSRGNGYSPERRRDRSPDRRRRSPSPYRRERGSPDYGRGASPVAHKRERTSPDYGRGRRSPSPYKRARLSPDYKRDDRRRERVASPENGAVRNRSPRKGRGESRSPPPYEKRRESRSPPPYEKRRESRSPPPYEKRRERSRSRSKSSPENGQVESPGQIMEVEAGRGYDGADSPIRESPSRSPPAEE
As to the kind of experiment: split reporter; BiFC with EYFP-N and EYFP-C fusions in Arabidopsis protoplasts.

Experiment [2] concerns the target T2, FRY2 fused to EYFP-N or EYFP-C (BiFC) (Arabidopsis) (UniProt Q5YDB6).
T2 sequence: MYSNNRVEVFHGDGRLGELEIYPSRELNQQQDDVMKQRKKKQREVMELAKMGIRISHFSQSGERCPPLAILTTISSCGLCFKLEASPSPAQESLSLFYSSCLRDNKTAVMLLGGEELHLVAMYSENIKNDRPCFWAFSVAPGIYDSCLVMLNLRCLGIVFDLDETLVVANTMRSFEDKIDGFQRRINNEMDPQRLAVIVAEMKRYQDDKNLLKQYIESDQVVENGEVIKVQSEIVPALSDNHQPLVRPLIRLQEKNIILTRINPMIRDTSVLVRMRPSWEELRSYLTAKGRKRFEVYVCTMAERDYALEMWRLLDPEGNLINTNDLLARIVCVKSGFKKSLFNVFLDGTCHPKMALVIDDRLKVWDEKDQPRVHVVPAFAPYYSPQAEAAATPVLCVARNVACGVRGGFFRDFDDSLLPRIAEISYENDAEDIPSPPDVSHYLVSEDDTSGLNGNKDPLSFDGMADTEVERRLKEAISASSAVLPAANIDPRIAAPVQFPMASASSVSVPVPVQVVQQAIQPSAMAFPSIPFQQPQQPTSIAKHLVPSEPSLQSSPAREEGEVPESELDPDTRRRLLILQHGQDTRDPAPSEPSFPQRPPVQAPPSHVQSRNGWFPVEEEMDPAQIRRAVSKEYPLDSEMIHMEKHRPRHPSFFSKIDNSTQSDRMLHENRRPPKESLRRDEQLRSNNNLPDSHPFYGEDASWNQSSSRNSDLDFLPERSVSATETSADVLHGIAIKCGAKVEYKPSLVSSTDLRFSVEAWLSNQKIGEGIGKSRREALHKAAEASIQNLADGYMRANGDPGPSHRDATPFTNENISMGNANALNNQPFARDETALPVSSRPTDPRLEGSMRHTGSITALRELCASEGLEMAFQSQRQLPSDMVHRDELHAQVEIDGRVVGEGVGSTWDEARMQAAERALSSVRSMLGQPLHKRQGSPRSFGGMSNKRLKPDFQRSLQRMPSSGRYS
The description is as above.

The target in experiment [3] is T3, RS40 fused to EYFP-N or EYFP-C (BiFC) (Arabidopsis) (UniProt P92965).
T3 sequence: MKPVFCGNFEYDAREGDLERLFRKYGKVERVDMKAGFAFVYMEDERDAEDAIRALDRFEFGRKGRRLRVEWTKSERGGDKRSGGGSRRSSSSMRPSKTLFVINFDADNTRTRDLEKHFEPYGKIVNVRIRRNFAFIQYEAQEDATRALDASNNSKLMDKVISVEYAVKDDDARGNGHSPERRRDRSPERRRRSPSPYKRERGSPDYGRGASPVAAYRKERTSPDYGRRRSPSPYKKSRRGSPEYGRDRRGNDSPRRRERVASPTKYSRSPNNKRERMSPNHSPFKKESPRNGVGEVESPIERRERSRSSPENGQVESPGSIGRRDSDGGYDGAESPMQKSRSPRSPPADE
The experiment is described as above.

The target in experiment [4] is T4, HOS5 fused to EYFP-N or EYFP-C (BiFC) (Arabidopsis) (UniProt Q8W4B1).
T4 sequence: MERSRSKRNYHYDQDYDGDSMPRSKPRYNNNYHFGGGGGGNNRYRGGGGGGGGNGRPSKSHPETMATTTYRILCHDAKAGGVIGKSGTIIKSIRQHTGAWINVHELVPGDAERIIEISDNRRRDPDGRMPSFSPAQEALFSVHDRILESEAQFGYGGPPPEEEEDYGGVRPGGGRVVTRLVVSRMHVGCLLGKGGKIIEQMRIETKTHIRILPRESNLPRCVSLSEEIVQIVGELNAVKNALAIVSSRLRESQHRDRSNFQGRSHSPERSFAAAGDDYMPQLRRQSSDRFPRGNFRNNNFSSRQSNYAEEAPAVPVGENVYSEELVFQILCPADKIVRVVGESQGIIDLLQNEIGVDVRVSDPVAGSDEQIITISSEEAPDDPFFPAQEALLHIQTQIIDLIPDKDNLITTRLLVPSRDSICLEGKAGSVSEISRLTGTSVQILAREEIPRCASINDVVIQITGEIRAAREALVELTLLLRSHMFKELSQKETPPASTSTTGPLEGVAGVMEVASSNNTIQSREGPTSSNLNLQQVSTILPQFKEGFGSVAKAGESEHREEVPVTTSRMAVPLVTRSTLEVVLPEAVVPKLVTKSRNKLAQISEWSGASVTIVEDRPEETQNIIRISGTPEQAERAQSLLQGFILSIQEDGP
The description is as above.

Experiment [5] deals with T5, HOS5 (High Osmotic Stress Gene Expression 5), full length, yeast two-hybrid fusion (Arabidopsis) (UniProt Q8W4B1).
T5 sequence: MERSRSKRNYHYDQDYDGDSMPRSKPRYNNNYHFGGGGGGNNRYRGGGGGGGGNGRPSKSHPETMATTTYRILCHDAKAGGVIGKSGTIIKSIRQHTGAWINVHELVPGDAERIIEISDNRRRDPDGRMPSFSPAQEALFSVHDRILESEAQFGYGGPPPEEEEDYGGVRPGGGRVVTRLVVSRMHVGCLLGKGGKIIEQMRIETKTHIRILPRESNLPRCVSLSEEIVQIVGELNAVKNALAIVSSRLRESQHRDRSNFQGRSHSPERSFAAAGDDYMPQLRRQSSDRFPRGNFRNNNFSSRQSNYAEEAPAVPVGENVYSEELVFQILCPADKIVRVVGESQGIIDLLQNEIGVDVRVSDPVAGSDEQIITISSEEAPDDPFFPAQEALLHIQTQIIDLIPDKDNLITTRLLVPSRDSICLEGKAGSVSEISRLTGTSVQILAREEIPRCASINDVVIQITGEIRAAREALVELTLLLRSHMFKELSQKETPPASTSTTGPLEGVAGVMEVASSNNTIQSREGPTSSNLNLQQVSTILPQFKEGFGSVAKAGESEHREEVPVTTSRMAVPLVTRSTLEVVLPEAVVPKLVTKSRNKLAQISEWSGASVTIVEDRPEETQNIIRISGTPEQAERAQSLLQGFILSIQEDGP
Briefly: two-hybrid; library screen with HOS5 as bait.

Experiment [6] addresses T5, HOS5 (High Osmotic Stress Gene Expression 5), full length, yeast two-hybrid fusion (Arabidopsis). Briefly: two-hybrid; pairwise in yeast strain AH109: HOS5 in pBD (pGBK), FRY2 in pAD (pGAD); deletion constructs and hos5-1 against the full-length partner; growth on -TLHA medium plus X-alpha-Gal, -TL as transformation control.
Experiment [7] addresses T6, hos5-1 mutant HOS5 (Gly233 to Ser), yeast two-hybrid fusion (Arabidopsis) (UniProt Q8W4B1).
T6 sequence: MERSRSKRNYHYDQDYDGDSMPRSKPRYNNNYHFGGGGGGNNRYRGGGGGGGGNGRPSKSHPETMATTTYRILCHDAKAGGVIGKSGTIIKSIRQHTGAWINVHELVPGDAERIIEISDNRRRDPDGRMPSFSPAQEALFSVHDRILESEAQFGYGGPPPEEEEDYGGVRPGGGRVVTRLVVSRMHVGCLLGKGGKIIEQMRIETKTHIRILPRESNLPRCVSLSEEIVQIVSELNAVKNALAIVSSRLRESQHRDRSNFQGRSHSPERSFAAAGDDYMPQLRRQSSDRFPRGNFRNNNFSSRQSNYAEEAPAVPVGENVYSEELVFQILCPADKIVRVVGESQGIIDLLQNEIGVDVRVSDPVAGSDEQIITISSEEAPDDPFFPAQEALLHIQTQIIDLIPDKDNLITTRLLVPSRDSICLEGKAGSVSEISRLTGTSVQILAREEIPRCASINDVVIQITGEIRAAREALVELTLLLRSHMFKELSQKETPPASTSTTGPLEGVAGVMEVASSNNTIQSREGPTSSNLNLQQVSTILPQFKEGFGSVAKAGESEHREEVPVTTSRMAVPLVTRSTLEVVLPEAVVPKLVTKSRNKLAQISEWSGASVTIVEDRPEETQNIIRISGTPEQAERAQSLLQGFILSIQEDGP
The description is as above.

B1: HAP5C fused to EYFP-C (BiFC negative control) (protein, UniProt Q8L4B2 1-231)
chain: MDQQDHGQSGAMNYGTNPYQTNPMSTTAATVAGGAAQPGQLAFHQIHQQQQQQQLAQQLQAFWENQFKEIEKTTDFKNHSLPLARIKKIMKADEDVRMISAEAPVVFARACEMFILELTLRSWNHTEENKRRTLQKNDIAAAVTRTDIFDFLVDIVPREDLRDEVLGSIPRGTVPEAAAAGYPYGYLPAGTAPIGNPGMVMGNPGGAYPPNPYMGQPMWQQQAPDQPDQEN
For B1, the binding result in experiment [1], in experiment [2], in experiment [3] and in experiment [4] was “no binding” each time.

B2: FIERY2/RNAP II CTD phosphatase-like 1 (FRY2/CPL1), full length, yeast two-hybrid fusion (protein, UniProt Q5YDB6 1-967)
chain: MYSNNRVEVFHGDGRLGELEIYPSRELNQQQDDVMKQRKKKQREVMELAKMGIRISHFSQSGERCPPLAILTTISSCGLCFKLEASPSPAQESLSLFYSSCLRDNKTAVMLLGGEELHLVAMYSENIKNDRPCFWAFSVAPGIYDSCLVMLNLRCLGIVFDLDETLVVANTMRSFEDKIDGFQRRINNEMDPQRLAVIVAEMKRYQDDKNLLKQYIESDQVVENGEVIKVQSEIVPALSDNHQPLVRPLIRLQEKNIILTRINPMIRDTSVLVRMRPSWEELRSYLTAKGRKRFEVYVCTMAERDYALEMWRLLDPEGNLINTNDLLARIVCVKSGFKKSLFNVFLDGTCHPKMALVIDDRLKVWDEKDQPRVHVVPAFAPYYSPQAEAAATPVLCVARNVACGVRGGFFRDFDDSLLPRIAEISYENDAEDIPSPPDVSHYLVSEDDTSGLNGNKDPLSFDGMADTEVERRLKEAISASSAVLPAANIDPRIAAPVQFPMASASSVSVPVPVQVVQQAIQPSAMAFPSIPFQQPQQPTSIAKHLVPSEPSLQSSPAREEGEVPESELDPDTRRRLLILQHGQDTRDPAPSEPSFPQRPPVQAPPSHVQSRNGWFPVEEEMDPAQIRRAVSKEYPLDSEMIHMEKHRPRHPSFFSKIDNSTQSDRMLHENRRPPKESLRRDEQLRSNNNLPDSHPFYGEDASWNQSSSRNSDLDFLPERSVSATETSADVLHGIAIKCGAKVEYKPSLVSSTDLRFSVEAWLSNQKIGEGIGKSRREALHKAAEASIQNLADGYMRANGDPGPSHRDATPFTNENISMGNANALNNQPFARDETALPVSSRPTDPRLEGSMRHTGSITALRELCASEGLEMAFQSQRQLPSDMVHRDELHAQVEIDGRVVGEGVGSTWDEARMQAAERALSSVRSMLGQPLHKRQGSPRSFGGMSNKRLKPDFQRSLQRMPSSGRYS
For the molecule B2, the binding result in experiment [5], in experiment [6] and in experiment [7] was “binds” in each case.

For the origin of these results see article PMC3798263.
